Data from US12371675B2, “Process and microorganism for synthesis of adipic acid from carboxylic acids” (THE GOVERNING COUNCIL OF THE UNIVERSITY OF TORONTO, priority 2015, dated 2025).

What was measured:
Experiment in all cases: purified protein, by the assay type
Conditions in all cases: pH 7.5
O=C(O)CCCO = system: O=C(O)CCCO
O=C(O)CCCCCO = system: O=C(O)CCCCCO
O=C(O)CCCCC(=O)O = system: O=C(O)CCCCC(=O)O

Substance: Mycobacterium abscessus carboxylate reductase MAB_4714c, SEQ ID NO: 36 (Mycobacteroides abscessus ATCC 19977)
- Km (O=C(O)CCCO): 26.52 ± 1.77 mM
- kcat (O=C(O)CCCO): 1.88 ± 0.052 s⁻¹
- kcat/Km (O=C(O)CCCO): 70.8 ± 1.96 M⁻¹ s⁻¹
- Km (O=C(O)CCCCCO): 2.64 ± 0.13 mM
- kcat (O=C(O)CCCCCO): 2.62 ± 0.03 s⁻¹
- kcat/Km (O=C(O)CCCCCO): 995 ± 13 M⁻¹ s⁻¹
- Km (O=C(O)CCCCC(=O)O): 35.87 ± 2.68 mM
- kcat (O=C(O)CCCCC(=O)O): 3.21 ± 0.11 s⁻¹
- kcat/Km (O=C(O)CCCCC(=O)O): 89.5 ± 3.07 M⁻¹ s⁻¹
